Test results as given in the supplement of paper PMC9151546.
Most values come without repeats; read them as rough.

Legend:
CHO-K1 [1] = experiment: micronucleus frequency (% of nucleated events); higher = more micronuclei (genotoxic)
CHO-K1 [2] = experiment: hypodiploid nuclei frequency (% of nucleated events); higher = more hypodiploid events (aneugenic)
Procedure: (§1)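 Flow-cytometric in vitro micronucleus assay (Litron MicroFlow) in CHO-K1 cells in 96-well plates, 19 concentrations (4.5-200 µM, n=1 per concentration). Without S9, cells were exposed for 24 h and sampled at 48 h. With Aroclor 1254-induced rat liver S9, cells were exposed for 3-4 h and sampled at 27-28 h. Read-outs are %MN and %hypodiploid nuclei relative to nucleated events, and relative survival as the nuclei-to-bead ratio versus the 1% DMSO vehicle control (x100).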

CHO-K1 [3] = experiment: relative survival (nuclei to bead ratio vs DMSO control) (% of vehicle control); higher = more surviving cells
Procedure: as §1
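For hypodiploid nuclei frequency (% of nucleated events) in this document: hypodiploid nuclei gated on a flow cytometer with 488 nm excitation after SYTOX Green staining, cultures at 37 °C, positive controls vinblastine without S9 and cyclophosphamide with S9.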
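For micronucleus frequency (% of nucleated events) in this document: cells lysed with nuclei stained by SYTOX Green, then micronucleus-gated events counted against nucleated events by flow cytometry with 488 nm excitation.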
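For relative survival (nuclei to bead ratio vs DMSO control) in this document: Lysed-cell nuclei stained with SYTOX Green and counted against counting beads by flow cytometry at 488 nm excitation, with vinblastine (no S9) and cyclophosphamide (plus S9) as positive controls.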

ClCCOCCCl [Bis(2-chloroethyl) ether]
Conditions	hypodiploid nuclei frequency, CHO-K1 [2] [%]	micronucleus frequency, CHO-K1 [1] [%]	relative survival, CHO-K1 [3]
concentration: 4.55 (µM), S9 metabolic activation: with S9, exposure time: 3-4 hours	0.22	1.52	92
concentration: 4.55 (µM), S9 metabolic activation: without S9, exposure time: 24 hours	0.96	1.68	103
concentration: 5.69 (µM), S9 metabolic activation: with S9, exposure time: 3-4 hours	0.26	1.2	111
concentration: 5.69 (µM), S9 metabolic activation: without S9, exposure time: 24 hours	0.82	2.24	87.8
concentration: 7.11 (µM), S9 metabolic activation: with S9, exposure time: 3-4 hours	0.22	1.62	113
concentration: 7.11 (µM), S9 metabolic activation: without S9, exposure time: 24 hours	0.74	1.38	94.5
concentration: 8.88 (µM), S9 metabolic activation: with S9, exposure time: 3-4 hours	0.28	1.06	88.5
concentration: 8.88 (µM), S9 metabolic activation: without S9, exposure time: 24 hours	0.96	3.48	101
concentration: 11.1 (µM), S9 metabolic activation: with S9, exposure time: 3-4 hours	0.28	1.9	82.4
concentration: 11.1 (µM), S9 metabolic activation: without S9, exposure time: 24 hours	0.76	2.66	110
concentration: 13.9 (µM), S9 metabolic activation: with S9, exposure time: 3-4 hours	0.28	1.42	98.3
concentration: 13.9 (µM), S9 metabolic activation: without S9, exposure time: 24 hours	0.76	3.34	102
concentration: 17.4 (µM), S9 metabolic activation: with S9, exposure time: 3-4 hours	0.34	1.14	115
concentration: 17.4 (µM), S9 metabolic activation: without S9, exposure time: 24 hours	0.72	2.24	121
concentration: 21.7 (µM), S9 metabolic activation: with S9, exposure time: 3-4 hours	0.22	0.98	75.3
concentration: 21.7 (µM), S9 metabolic activation: without S9, exposure time: 24 hours	0.76	1.86	121
concentration: 27.1 (µM), S9 metabolic activation: with S9, exposure time: 3-4 hours	0.26	1.14	131
concentration: 27.1 (µM), S9 metabolic activation: without S9, exposure time: 24 hours	0.96	1.84	70.5
concentration: 33.9 (µM), S9 metabolic activation: with S9, exposure time: 3-4 hours	0.22	1.16	111
concentration: 33.9 (µM), S9 metabolic activation: without S9, exposure time: 24 hours	0.68	2.62	79.5
concentration: 42.4 (µM), S9 metabolic activation: with S9, exposure time: 3-4 hours	0.22	0.88	81.9
concentration: 42.4 (µM), S9 metabolic activation: without S9, exposure time: 24 hours	0.68	1.6	99.4
concentration: 53 (µM), S9 metabolic activation: with S9, exposure time: 3-4 hours	0.26	1.04	85
concentration: 53 (µM), S9 metabolic activation: without S9, exposure time: 24 hours	0.6	1.84	72.3
concentration: 66.2 (µM), S9 metabolic activation: with S9, exposure time: 3-4 hours	0.14	0.96	81
concentration: 66.2 (µM), S9 metabolic activation: without S9, exposure time: 24 hours	1.04	1.86	70
concentration: 82.7 (µM), S9 metabolic activation: with S9, exposure time: 3-4 hours	0.36	1.32	66.2
concentration: 82.7 (µM), S9 metabolic activation: without S9, exposure time: 24 hours	1.06	4.72	73.4
concentration: 103 (µM), S9 metabolic activation: with S9, exposure time: 3-4 hours	0.12	0.76	82.4
concentration: 103 (µM), S9 metabolic activation: without S9, exposure time: 24 hours	1	2.62	74.2
concentration: 129 (µM), S9 metabolic activation: with S9, exposure time: 3-4 hours	0.32	1.54	66.9
concentration: 129 (µM), S9 metabolic activation: without S9, exposure time: 24 hours	1.28	3.72	80.9
concentration: 162 (µM), S9 metabolic activation: with S9, exposure time: 3-4 hours	0.36	1.96	88.7
concentration: 162 (µM), S9 metabolic activation: without S9, exposure time: 24 hours	1.12	3.16	90
concentration: 202 (µM), S9 metabolic activation: with S9, exposure time: 3-4 hours	0.36	1.46	73.6
concentration: 202 (µM), S9 metabolic activation: without S9, exposure time: 24 hours	0.88	2.36	76.2
